Hit rate of the full screen: of about 410,000 compounds, about 5,000 (1.2%) were called active. The shares of active, inactive and inconclusive entries below differ from those in the screen. Calls follow the shape of the dose curve; as a rule, active = well fitted inhibition curve with a large enough effect; inconclusive = small, poorly fitted or top-dose-only effect; inactive = no such curve, though single readings can be large or run the other way. Potencies of inconclusive entries are doubtful fits and often do not repeat.
Test: qHTS for Inhibitors of TGF-b; also: nearly all actives have a fitted effect of over 65% in size
Conditions: HepG2 CAGA-GFP TGF-b/SMAD3 reporter, GFP fluorescence, 18 h, TGF-beta stimulated, 500 pg/mL final; series mostly up to 46.1 µM
Summary of the method: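 TGF-beta reporter screen: HEPG2 CAGA-GFP, 1% FBS, 500 pg/mL TGF-beta final, 18 h; per-cell GFP summed per well; curves fitted and categorized by class.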
Potency is read from the fitted curve at half-maximal effect; tags tell the direction and shape of the fitted curve.

SMILES	Potency
COC(=O)C1=C(c2cc3ccccc3o2)C[C@@H]2CC[C@H]1N2C(=O)NC1CCCCC1	inconclusive: 5.62 µM [inhibitor, full curve]
O=S(=O)(c1cc(Cl)cc(Cl)c1)N1Cc2cc(-c3cccc(F)c3)ccc2-n2nncc2C1	inactive
O=C1/C(=C/c2ccccc2)C[C@@]2(O)[C@H]3Cc4ccc(O)c5c4[C@@]2(CCN3CC2CC2)C1O5 (stereo partly drawn)	active: 5.62 µM
Cc1cc([N+](=O)[O-])c(Cl)cc1NC(=O)C(C)C	inconclusive: 3.55 µM [inhibitor, single point]
CCc1ccc(CNC(=O)C2CCN(C(=O)c3ccc(-n4c(C)cc5ccccc54)s3)CC2)cc1	inconclusive: 7.08 µM [inhibitor, partial curve, poor fit]
CCCCn1nnnc1C(C1CC1)N1CCC2(CC1)C(=O)NCN2c1ccccc1 (stereo not drawn)	inconclusive: 10 µM [inhibitor, partial curve, poor fit]
C[C@@H]1CNC(=O)c2c(C(=O)Nc3cccc(Cl)c3)ncn21	inconclusive: 35.5 µM [inhibitor, single point]
COc1cccc(N2C(=O)NC(=O)/C(=C/c3ccc([N+](=O)[O-])s3)C2=O)c1	inconclusive: 35.5 µM [inhibitor, single point]
CCOC(=O)c1c(C)n(Cc2ccc(F)cc2)c2ccc(O)cc12	inconclusive: 22.4 µM [inhibitor, single point]
O=c1[nH]c2ccccc2n1C1CCN(C(c2cccc3ccccc23)c2nnnn2-c2ccc3c(c2)OCCO3)CC1 (stereo not drawn)	inconclusive: 11.2 µM [inhibitor, partial curve, poor fit]
CC12CCC3C(CCC4CC(=O)C(C(O)C(F)(F)F)CC43C)C1CCC2O (stereo not drawn)	inconclusive: 25.1 µM [inhibitor, single point]
N#CC1c2ccccc2-n2nncc2CN1C(=O)CCc1ccccc1 (stereo not drawn)	inactive
CCCCOP(=O)(c1ccc(N(C)C)cc1)C(Nc1ccccc1)c1ccccc1 (stereo not drawn)	active: 15.8 µM
COc1ccc(C(=O)OC2CC3CCC(C2)[N+]3(C)[O-])cc1OC (stereo not drawn)	inconclusive: 22.4 µM [inhibitor, single point]
Cc1cccc(N2C(=O)NC(=O)C3(Cc4cc(C)ccc4N(C)C3)C2=O)c1 (stereo not drawn)	inactive
Fc1ccc(CCNCc2ccc(Cl)c(Cl)c2)cc1	inconclusive: 25.1 µM [inhibitor, single point]
Cc1cc(O)c2c3c(c(=O)oc2c1)CCC(C)C3 (stereo not drawn)	inconclusive: 20 µM [inhibitor, single point]
CN(C)c1ccc(/C=C2/C(=O)NC(=O)N(Cc3ccco3)C2=O)cc1	inconclusive: 2.24 µM [inhibitor, partial curve, poor fit]
CSc1ccccc1C(=O)C1CCCN(Cc2cccc(C)n2)C1 (stereo not drawn)	inconclusive: 22.4 µM [inhibitor, single point]

SMILES	Potency
COc1cccc(-c2nn3c(=O)cc(CN4CCN(C(=O)COc5ccccc5C)CC4)nc3s2)c1	inactive
CC[n+]1c(/C=C/C=C/c2ccc(N(C)C)cc2)sc2ccccc21	inconclusive: 3.55 µM [inhibitor, partial curve, poor fit]
CCN(CC)c1ccc(N=Cc2c(O)n(-c3ccccc3)c(=O)[nH]c2=O)cc1	inconclusive: 35.5 µM [inhibitor, single point]
Cn1c(O)c(/C=C2\N=c3ccccc3=C2CCNC(=S)NC2CC2)c(=O)n(C)c1=O	inactive
CCCN1CCc2cccc3c2[C@H]1Cc1ccc(O)c(O)c1-3	inconclusive: 35.5 µM [inhibitor, single point]
C[C@H](CO)N1C[C@H](C)[C@H](CN(C)C(=O)Nc2cccc3ccccc23)Oc2c(NC(=O)c3ccc(-c4nccs4)cc3)cccc2C1=O	inconclusive: 0.447 µM [inhibitor, full curve, poor fit]
CCOc1ccc(CC(=O)NCCc2csc3nc(-c4ccccc4F)nn23)cc1	inconclusive: 22.4 µM [inhibitor, single point]
O=C(CNC(=O)c1ccc(Cl)cc1)Nc1ccc(Br)cc1C(=O)c1ccccc1	inconclusive: 35.5 µM [inhibitor, single point]
Cc1cnc(C)c(Nc2nc(C(N)Cc3ccc(C(F)(F)F)cc3)cs2)n1 (stereo not drawn)	inconclusive: 35.5 µM [inhibitor, single point]
O=C(c1ccc(Cl)cc1)C1CCCN(Cc2cccc3ncccc23)C1 (stereo not drawn)	inconclusive: 14.1 µM [inhibitor, single point]
O=C(COc1ccccc1)N1CCN(Cc2c[nH]c3ccccc23)CC1	inconclusive: 14.1 µM [inhibitor, single point]
COC(=O)C1=C(c2cccc(Cl)c2)C[C@@H]2CC[C@H]1N2C(=O)N1CCCC1	inconclusive: 10 µM [inhibitor, partial curve, poor fit]
Cc1cc(NC(=O)COC(=O)c2c(C)nn(Cc3ccccc3)c2C)no1	inconclusive: 7.08 µM [inhibitor, full curve, poor fit]
COC(=O)C1=C(c2ccc(OC)c(OC)c2)C[C@@H]2CC[C@H]1N2C(=O)NCCCOC(C)C	inconclusive: 7.08 µM [inhibitor, partial curve, poor fit]
O=C1NCN(c2ccccc2)C12CCN(C(c1cccs1)c1nnnn1C1CCCC1)CC2 (stereo not drawn)	inconclusive: 22.4 µM [inhibitor, partial curve, poor fit]
Fc1ccc(C(OCCN2CCCC2)c2ccc(Br)cc2)cc1 (stereo not drawn)	inconclusive: 35.5 µM [inhibitor, partial curve, poor fit]
Nc1c2c(nc3sc4c(c13)CCCC4)CCCC2	inconclusive: 22.4 µM [inhibitor, single point]
N#Cc1cc2c(nc1SCC(=O)Nc1cc(Cl)ccc1Cl)C1CCN2CC1	inconclusive: 12.6 µM [inhibitor, single point]
CN(C)CCN=Cc1c(O)n(C2CCCCCC2)c(=O)[nH]c1=O	inconclusive: 5.62 µM [inhibitor, single point]

Source: PubChem BioAssay AID588855 (National Center for Advancing Translational Sciences (NCATS), 2011)
